Experimental findings from PubChem BioAssay AID1745853 (National Center for Advancing Translational Sciences (NCATS), 2022) are described below.

Values joined by “and” are separate entries in the source; they are usually repeats but may differ in a detail not shown here. Equal entries are not always repeated. This is one part of the list. The main result of the screen is listed elsewhere. These columns were measured beside it and carry no call.

Holding throughout (assay): Primary Screen for Target Class Profiling of Small Molecule Inhibitors of Methyltransferases
The target of test [1] is Glycine N-methyltransferase (Homo sapiens) (UniProt Q14749). The settings on record: purified enzyme, MTase-Glo SAH luminescence; measured here: GNMT inhibition; at 40 µM; stronger effect = lower value. The method in brief:
(§1)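 Each enzyme was assayed with SAM and its substrate. SAH formation detected by MTase-Glo luminescence; single-point 40 uM screen[…].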

The target of test [2] is Guanidinoacetate N-methyltransferase (Homo sapiens) (UniProt Q14353). Particulars: purified enzyme, MTase-Glo SAH luminescence; measured here: GAMT inhibition; at 40 µM; stronger effect = lower value. The method in brief:
as §1

In test [3] the target is Histamine N-methyltransferase (Homo sapiens) (UniProt P50135). The settings on record: purified enzyme, MTase-Glo SAH luminescence; measured here: HNMT inhibition; at 40 µM; stronger effect = lower value. The method in brief:
as §1

Test [4] concerns the target Nicotinamide N-methyltransferase (Homo sapiens) (UniProt P40261). Particulars: purified enzyme, MTase-Glo SAH luminescence; measured here: NNMT inhibition; at 40 µM; stronger effect = lower value. The method in brief: as §1
Test [5] has as its target Phenylethanolamine N-methyltransferase (Homo sapiens) (UniProt P11086). Particulars: purified enzyme, MTase-Glo SAH luminescence; measured here: PNMT inhibition; at 40 µM; stronger effect = lower value. The method in brief:
as §1
% is scaled to controls: 0 for no effect and ±100 for the full control effect.

As for `Cc1cccc(NC(=O)Cn2c(=O)oc3cc(S(=O)(=O)N4CCCCC4)ccc32)c1`, the activity change, negative = inhibition in test [1] was -4.13%; in test [2] it was 4.89%; in test [3] it was 0.449%; in test [4], -13.5%; in test [5], -11.5%.

Take `O=C(CSc1nnc2n(Cc3ccc(F)cc3)c(=O)c3ccccc3n12)NC1CCCCC1`: the activity change, negative = inhibition is -4.08% in test [1]; 4.16% in test [2]; 3.25% in test [3]; -17.5% in test [4]; -2.04% in test [5].

Regarding `COC(=O)c1ccc(OC)c(CN2CC(=O)N(Cc3ccc(F)cc3)c3ccccc3S2(=O)=O)c1`, the activity change, negative = inhibition in test [1] was determined as 7.72%; in test [2], 0%; in test [3] it was 6.15%; in test [4], 1.69%; in test [5], 2.06%.

Regarding `CCC(C)NC(=O)c1ccc2c(=O)n(C)c3nn(CC(=O)NCc4ccccc4)c(=O)n3c2c1` (stereo not given), the activity change, negative = inhibition in test [1] was -1.91%; in test [2], 0%; in test [3] it was -0.702%; in test [4] it was -22.5%; in test [5], -1.26%.

Regarding `COc1ccc2cc([C@H](C)C(=O)O)ccc2c1`, the activity change, negative = inhibition was 2.87% and -8.25% in test [1]; -6.34% and -0.611% in test [2]; -0.115% and -2.8% in test [3]; -17.9% and -9.76% in test [4]; -9.34% and 0.282% in test [5].

Take `N#Cc1cc(CN2CCC(Nc3ncnc4sc(Cl)cc34)CC2)ccc1F`: the activity change, negative = inhibition in test [1] is -4.68%; in test [2] it was 4.69%; in test [3], -2.5%; in test [4] it was -33.6%; in test [5], -22.9%.

On to `C=C1C(=O)OC2/C=C(/C)C3=CC(=O)C(C)(CC(OC(=O)/C(C)=C/COC(C)=O)C12)O3` (stereo not given), for which the activity change, negative = inhibition in test [1] is -3.48%; in test [2], 5.95%; in test [3] it was 10.2%; in test [4], -2.51%; in test [5] it was 3.54%.

Regarding `CC1(C(=O)NC2CCCCCC2)Cn2c(cc3sccc32)C(=O)N1Cc1cccnc1` (stereo not given), the activity change, negative = inhibition in test [1] was 0.037%; in test [2] it was 0%; in test [3], 6.27%; in test [4], -7.6%; in test [5], 1.93%.

Consider `COc1ccc2[nH]c3c(-c4cccc5ccccc45)nccc3c2c1`, for which the activity change, negative = inhibition in test [1] was -1.2%; in test [2] it was -15%; in test [3] it was 8.64%; in test [4], -36.8%; in test [5] it was -6.21%.

In the case of `Cc1ccc(C(=O)N2CCCC(n3cc(-c4nc(C5CC5)no4)nn3)C2)s1` (stereo not given), the activity change, negative = inhibition was -9.41% in test [1]; -8.71% in test [2]; -6.33% in test [3]; -5.51% in test [4]; -10.5% in test [5].

For the compound `CCC(C)NC(=O)c1ccc2c(=O)n(C(C)C)c3nn(CC(=O)c4ccc(C)cc4)c(=O)n3c2c1` (stereo not given), the activity change, negative = inhibition was 0.608% in test [1]; 4.97% in test [2]; -1.34% in test [3]; 1.01% in test [4]; 3.98% in test [5].

Turning to `CN1C(=O)c2cc(C(=O)NCCc3ccco3)nn2CC1(C)C(=O)NCc1ccc(F)cc1` (stereo not given), the activity change, negative = inhibition is 4.16% in test [1]; 2.89% in test [2]; -4.12% in test [3]; 4.39% in test [4]; 4.54% in test [5].

As to `CC(C)C[C@H](CC(=O)NO)C(=O)N[C@H](C(=O)N[C@@H](C)C(=O)NCCN)C(C)(C)C`, the activity change, negative = inhibition was 4.17% in test [1]; 6.1% in test [2]; 4.38% in test [3]; -7.54% in test [4]; 2.53% in test [5].

Regarding `CC1CCC(NC(=O)C2(C)Cn3c(ccc3-c3ccco3)C(=O)N2Cc2ccc(F)cc2)CC1` (stereo not given), the activity change, negative = inhibition in test [1] was 2%; in test [2] it was 0%; in test [3], 5.12%; in test [4] it was -0.523%; in test [5], -0.781%.

`CCOc1ccc(NC(=O)Cn2c(=O)oc3cc(S(=O)(=O)N4CCCC4)ccc32)cc1`: the activity change, negative = inhibition in test [1] is -8.09%; in test [2], -0.31%; in test [3], -3.98%; in test [4], -2.25%; in test [5] it was -14%.

`CC1CCCC(NC(=O)C2(C)Cn3c(cc4occc43)C(=O)N2CCCc2ccccc2)C1C` (stereo not given): the activity change, negative = inhibition in test [1] was -3.6%; in test [2], 1.36%; in test [3] it was -5.88%; in test [4], -7.04%; in test [5], -7.95%.

With `CN(CCN1C(=O)c2cc3occc3n2CC1(C)C(=O)NC1CCCCCC1)C1CCCCC1` (stereo not given), the activity change, negative = inhibition came to 6.01% in test [1]; 3.34% in test [2]; 5.35% in test [3]; 4.72% in test [4]; 4% in test [5].

Consider `CC(=O)O[C@H]1CC[C@H](C)[C@@]2(C)[C@H](OC(C)=O)c3c(C)coc3C(=O)[C@H]12`, for which the activity change, negative = inhibition was -2.04% in test [1]; -4.87% in test [2]; 7.55% in test [3]; -18.3% in test [4]; -14.7% in test [5].

For `C=CCn1c(=O)c2ccc(C(=O)NCC(C)C)cc2n2c(=O)n(CC(=O)Nc3cccc(C)c3)nc12`, the activity change, negative = inhibition is -5.08% in test [1]; 0.439% in test [2]; -3.73% in test [3]; -8.67% in test [4]; -7.18% in test [5].

For `C=Cc1ccc(Cn2nc3n(Cc4ccc(C)cc4)c(=O)c4ccccc4n3c2=O)cc1`, the activity change, negative = inhibition in test [1] was 3.85%; in test [2], 5.91%; in test [3] it was 4.81%; in test [4] it was -3.68%; in test [5] it was 1.5%.

Turning to `COc1ccccc1CNC(=O)Cn1ccc2cc(S(=O)(=O)N3CCC(C)CC3)ccc21`, the activity change, negative = inhibition in test [1] worked out at 6.17%; in test [2], 0.912%; in test [3], 6.13%; in test [4], 3.8%; in test [5] it was 4.25%.

As to `CCc1cccc(N(C)C(N)=Nc2cccc3ccccc23)c1`, the activity change, negative = inhibition in test [1] is -9.11%; in test [2], -5.05%; in test [3], -44.3%; in test [4] it was -15%; in test [5], 0.5%.

Take `COc1ccc(-c2cnc(-c3cccc4c3-c3ccccc3C4=O)o2)cc1`: the activity change, negative = inhibition is 5.86% in test [1]; 2.07% in test [2]; 6.26% in test [3]; -10% in test [4]; 0.878% in test [5].

`Cc1nnc2n1CCC(N(C)C(=O)NCCc1ccccc1)CC2` (stereo not given): the activity change, negative = inhibition in test [1] was 1.17%; in test [2], -1.92%; in test [3] it was -2.14%; in test [4], -0.052%; in test [5] it was 1.77%.

In the case of `CCOc1ccccc1CNC(=O)Cn1ccc2cc(S(=O)(=O)N3CCC(C)CC3)ccc21`, the activity change, negative = inhibition in test [1] was 3.1%; in test [2], 0.273%; in test [3], -2.97%; in test [4] it was 0.635%; in test [5], 1.29%.

As for `NC(=O)C1=CC2C3C=CC2C(OC3=O)O1` (stereo not given), the activity change, negative = inhibition in test [1] is -3.87%; in test [2], 0.636%; in test [3], 7.99%; in test [4], -12.6%; in test [5], -6.15%.

On to `CCOC(=O)c1cc2n(n1)CC(C)(C(=O)NCc1ccccc1OC)N(Cc1ccc(SC)cc1)C2=O` (stereo not given), for which the activity change, negative = inhibition in test [1] stood at 5.4%; in test [2], 0.848%; in test [3], 10.2%; in test [4] it was 6.56%; in test [5] it was 5.24%.

Consider `CNC(=O)c1ccc2c(c1)CCO[C@H]2CCN1CCN(c2ccc(OC)cc2)CC1`, for which the activity change, negative = inhibition was -4.14% in test [1]; -1.52% in test [2]; 6.29% in test [3]; -18.8% in test [4]; 0.011% in test [5].

Consider `COc1ccc(C(=O)N2CCN(CCCn3nc4n(c3=O)CCCC4)CC2)cc1`, for which the activity change, negative = inhibition in test [1] is -3.89%; in test [2], -7.32%; in test [3] it was -0.605%; in test [4], -12.8%; in test [5], -8.17%.
